According to the supplement of paper PMC10986608:
The list shows a part of the results. Single values are uncertain, as repeats are few or missing.

System: Candida albicans DPL-15
Test: growth (OD600) after compound treatment (apparently relative to screen median) (relative growth (fraction; screen median 1.02)); DPL-15 is a caspofungin-resistant clinical isolate; higher = more fungal growth (less antifungal activity)
Settings: 25 µM; RPMI 1640; 48 h; 30 °C

Structure (SMILES) | growth
COC(=O)C/C=C/[C@H](C)[C@@H](NC(=O)[C@H](Cc1c[nH]c2ccccc12)NC(=O)OC(C)(C)C)c1ccccc1 | 1.11
O=c1c(O)c(-c2ccc(N3CCOCC3)cc2)[nH]c2cccc(F)c12 | active: 0.0822
CC1(C)CNC(=O)CC2(CCCCC2)CNC(=O)c2cccc(c2)-c2cc(n[nH]2)C1 | 1.1
CC(=O)OC1(C)C(=O)C=C2C=C(/C=C/C(=O)OC(C)(C)C)OC=C2C1=O (stereo not drawn) | 1.14
CC(C)(C)c1ccc(C#C[C@@H]2C=C[C@@H](O)[C@@H](COC(=O)Nc3ccccc3)O2)cc1 | 1.08
CC(=O)OCC(CO)N1C(=O)c2[nH]nc(CC(C)C)c2C1c1ccc(F)cc1 (stereo not drawn) | 0.882
CCCCCCNS(=O)(=O)NC(C)(C)C | 1.18
CNc1ccc(-c2ccc(F)cc2)cc1N | 1.04
COc1cccc(CN(C)C[C@H]2CCCN(CCc3ccccc3C)C2)c1 | 0.997
COC(=O)NC(C(=O)OC)(C(=O)OC)c1ccccc1 | 1
COc1cccc(Oc2ccccc2C(=O)O)c1OCc1ccccc1 | 1.13
CC#CCN1C(=O)NC(c2ccccc2)C(C#N)=C1C (stereo not drawn) | 0.984
CCCCOS(=O)(=O)NC(C)(C)C | 1.13
C[C@@H](O)Cn1nc2cc1-c1cccc(c1)C(=O)NCC1(CCCCC1)CC(=O)N[C@@H](c1ccccc1)COC2 | 1.17
CC(=O)OC[C@H]1O[C@H](c2cccc(C(C)=O)c2)C=C[C@@H]1OC(C)=O | 0.934
COC(=O)C1=C(C)N(Cc2ccc(C(F)(F)F)cc2)C(NCC2CC2)=NC1c1ccccc1 (stereo not drawn) | 1.11
CC(C)Cc1nn(-c2ccc(OC(F)(F)F)cc2)c2c1C(c1ccc(Br)cc1)NC2=O (stereo not drawn) | 1.14
CO[C@@H]1[C@H](O)CC[C@]2(O)CN(c3ccc(C)c(O)c3)[C@](C)([C@H](O)CC=C(C)C)[C@@H]12 | 0.973
COC(=O)C1=C(C)N(Cc2cccc(F)c2)C(=S)NC1c1cccc(Cl)c1 (stereo not drawn) | 0.873
CO[C@@H]1CCN(C(=O)c2c(O)cc(O)cc2Nc2cnn(C(C)C)c2)C1 | 1.02
CCO[C@H]1CCN(C(=O)c2c(O)cc(O)cc2Nc2c(C)nn(C)c2C)C1 | 1.01
CC(C)CC1=NCC(C)(C)NC2=C1C(c1cccc(C(F)(F)F)c1)N(Cc1ccccc1)C2=O (stereo not drawn) | 1.04
COc1ccc(C[C@@H]2COC[C@@H]2Cc2ccc3c(c2)OCO3)cc1OC | 0.936
CC(C)Cc1n[nH]c2c1C(c1ccsc1)N(c1ccc3c(c1)OCO3)C2=O (stereo not drawn) | 0.974
Cc1nn(-c2ccc(F)cc2)c2c1C(c1cccc(C(F)(F)F)c1)NC2=O (stereo not drawn) | 0.766
O=C(NCCn1ccnc1)c1nnc(-c2ccccc2)c(-c2ccccc2)n1 | 1.05
COc1cc(Br)c(C(=O)N2Cc3ccccc3C2)c(OC)c1 | 0.902

Structure (SMILES) | growth
COC(=O)N1C2=C(c3ccccc3[C@@H]1CC(=O)O)[C@H]1O[C@@H](C2)c2ccccc21 | 1.13
COC(=O)C/C=C/[C@@H](C)[C@H](NC(=O)OCC(Cl)(Cl)Cl)c1ccc2ccccc2c1 | 0.952
COc1ccc([C@]23[C@H](c4ccccc4)C[C@@H](O)[C@@]2(O)c2c(OC)cccc2N3C)cc1 | 1.19
COC(=O)C1=C(C)N(Cc2ccc(Cl)cc2)C(=S)NC1c1ccccc1F (stereo not drawn) | 0.854
CO[C@H]1CCN(C(=O)c2c(O)cc(O)cc2Nc2cnn(CCN(C)C)c2)C1 | 1.11
COc1cc(F)cc2c1[C@]1(O)[C@H](O)[C@@H](C#N)[C@H](c3ccccc3)[C@]1(c1ccc(Br)cc1)O2 | 1.06
CC1=Nc2ccccc2[C@@]1(C)Cc1occc(=O)c1OS(C)(=O)=O | 1.26
CCNC(=O)[C@H]1[C@H](C(=O)NCC)[C@@H](c2ccc(O)c(OC)c2)[C@@H]1c1ccc(O)c(OC)c1 | 1.03
Nc1ccccc1C(=O)/C=C/c1ccccc1 | 0.711
COc1ccc(N2C(=O)c3[nH]nc(CC(C)C)c3C2c2ccc(Cl)cc2)cc1 (stereo not drawn) | 1.16
COc1cccc(Oc2cccc(F)c2C(=O)O)c1OCc1ccccc1 | 1.03
Cc1cc(O)c2c(c1)OC1(C)C(=O)C=CC(O)=C1C2=O (stereo not drawn) | 1.13
CCN1C(=O)N[C@@H](c2cccc(F)c2)C(C(C)=O)=C1C | 0.983
CNc1cccc(F)c1C(=O)OCC(=O)c1ccc(C#N)cc1 | 0.967
C=C1CC[C@H]2[C@H](C(=O)C(C)C)C3=C(O[C@]2(C)CC[C@@H]2[C@@H]1CC2(C)C)C(C)(C)C(=O)C(C)(C)C3=O | 0.901
CC(C)C(=O)O[C@@H]1c2c(c3c([c-]2[N+]#N)C(=O)c2c(O)cccc2C3=O)C(=O)[C@@H]2O[C@]12C | 0.603
COC(=O)[C@@H]1[C@@H](c2ccccc2)[C@]2(c3ccc(OC)cc3)Oc3cc(OC)cc(OC)c3[C@@]1(O)C2(O)O | 1.02
N#Cc1ccc(S(=O)(=O)N2CCCc3nc(-c4ccc(F)cc4)ccc32)cc1 | 0.962
C=CC(=O)OC[C@H]1O[C@H](C#Cc2ccc(C(C)(C)C)cc2)C=C[C@H]1OC(=O)C=C | 0.984
CCO[C@@H]1CCN(C(=O)c2c(O)cc(O)cc2Nc2cnn(C)c2)C1 | 1.08
Cn1nc(-c2cccc(C(F)(F)F)c2)cc1N | 1.32
COc1cccc(N2C(=O)c3[nH]nc(CC(C)C)c3C2c2ccc(F)cc2)c1 (stereo not drawn) | 1.02
CCOC(=O)CN1CCCc2nc(CC)c(CC)cc21 | 0.89
COc1ccc(N2C(=O)c3c(c(C(C)C)nn3C)C2c2cccc(C(F)(F)F)c2)cc1 (stereo not drawn) | 0.999
COc1ccc2c(c1)C(=O)[C@@H](OC(=O)NS(=O)(=O)c1ccc(F)cc1)[C@H](c1ccc(OC)c(Br)c1)O2 | 0.407
CC1=C[C@]2(O[C@H](COc3ccccc3)C1)C(=O)N(C)c1ccccc12 | 0.941
